From ChEMBL document CHEMBL4888484, “Replenishing the malaria drug discovery pipeline: Screening and hit evaluation of the MMV Hit Generation Library 1 (HGL1) against asexual blood stage Plasmodium falciparum ,using a nano luciferase reporter read-out” (2022)
In all, about 150,000 compounds went through this assay and about 540 (0.36%) showed an effect of 50% or more. This is one part of the list.

The molecules below were run on Plasmodium falciparum (assay: Primary screen in NF54 nanoGlo assay, in single point, at 2uM, 72h; a lower Z score goes with more inhibition). Settings: timepoint 72 hour.
Assay type: functional, Erythrocyte

Compound | % Inhibition [%] | Z score
COc1ccc(-c2noc(-c3ccc(N4CCCC4)nc3)n2)cc1 | -4 | 0.41
CC(C)[C@@H]1CN(C)CCN1C(=O)c1ncc(C#N)cc1Cl | -2 | 0.4
COCC(O)CN(C)C(=O)C(C)c1cccs1 (stereo not given) | -13 | 2.41
O=C(NC1(C(=O)O)CCc2ccccc21)C1CCCCO1 (stereo not given) | 3 | -0.26
Nc1ncc2[nH]ccc2c1Br | -3 | 0.55
O=C(c1ccc(-c2ccc(Cl)c(Cl)c2)cc1)N1CC[C@H](n2nccn2)C1 | 10 | -1.39
COCc1cccc(-c2ccc3c(c2)OCCNC3)n1 | -5 | 0.96
Cc1ccc(C)c(S(=O)(=O)N2CC(N(C(=O)NC(C)C)C3CCOCC3)C2)c1 | -1 | 0.16
CC1CN(C(=O)C2(C)CCC2)CCN(C(=O)C2(C)CCC2)C1 | 14 | -1.63
CCN(CCn1cccn1)Cc1c(C)nn(-c2ccccc2)c1C | -2 | 0.41
Cc1nc(COCC(F)(F)C(F)F)n(-c2ccccc2C(=O)O)n1 | -6 | 1.14
Cc1cnc(COCC(=O)NC(C)(C)Cc2ccc(Br)c(C)c2)o1 | -9 | 1.67
CCOC(=O)N1CCN(C(=O)c2ccc(-c3cncc(OC)c3)cc2)CC1 | -9 | 0.91
O=C(Cc1cccnc1)N1CCC=C(F)C1 | -6 | 0.6
C[C@@]12CN(C(=O)[C@@H]3CCCO3)C[C@@H]1CN(S(=O)(=O)C(F)(F)F)C2 | -4 | 0.57
Cc1c[nH]c(CCN2C[C@@](C)(c3ccccc3)CCC2=O)n1 | -2 | 0.33
O=C(c1ccc(C2CCCCC2)cc1)N1CCC[C@H](c2nnn[nH]2)C1 | 1 | -0.11
c1nc(C2CCN(Cc3ccc4c(c3)OCCO4)CC2)no1 | -16 | 1.52
O=C1CCCC[C@@H](C(=O)NCCN2CCOCC2)N1 | 5 | -0.89
NC(=O)C1CCCCC1Nc1ncc(Br)cn1 (stereo not given) | -12 | 1.58
CC1(C)C[C@@H](CNC(=O)c2cncnc2C2CC2)CCO1 | -2 | 0.28
CCc1nc2c(c(NC[C@H]3CCOC3)n1)CCN(Cc1ccoc1)CC2 | -10 | 1.23
Cc1c(Br)ccc(=O)n1CCOC[C@H]1CCCO1 | -1 | 0.24
COc1ccc(-c2n[nH]c(=O)[nH]2)c(-n2cccn2)c1 | -17 | 1.86
Cc1cccnc1-c1noc([C@]2(C)CCCO2)n1 | 2 | -0.38
COCC1(c2nc(-c3nccc4ccccc34)no2)CCC1 | 1 | -0.09
COc1ccc(NC(=O)c2ccc(COc3ccc4c(c3)CCC4)cc2)c(OC)c1 | -27 | 3.15
Brc1ccc2[nH]c(CNc3ncccn3)cc2c1 | 0 | 0.04

Compound | % Inhibition [%] | Z score
CN(Cc1ccc(Br)o1)S(C)(=O)=O | -13 | 1.81
Cn1c(CNC(=O)C2CCC2)nc2c1CN(C(=O)Cc1cccc(F)c1)CC2 | -8 | 0.88
COc1cc(CN(C)Cc2nc(C)cs2)ccc1OC[C@@H](O)CN1CCC(O)CC1 | 3 | -0.4
Fc1ccccc1-c1cc(NCc2nnn[nH]2)n2nccc2n1 | -3 | 0.52
CCOC(=O)NC1CCN(Cc2ncc(C)o2)CC1 | -8 | 1.09
CCN(C(=O)c1cccc(OC)c1)[C@H](c1ccc(C)cc1)c1c[nH]c2ccccc12 | 11 | -1.45
COC(=O)Nc1nc(-c2ccccc2)c(-c2nc3ccccc3c(=O)n2-c2ccc(OC)cc2)s1 | 51 | -6.56
CCn1ccnc1CN(C)c1nc(N(C)C)nc(C)c1C | -6 | 1.14
CCc1cnccc1-c1noc(C2CCOCC2)n1 | -5 | 0.55
O=c1[nH]cccc1-c1csc(C2CC3(CC3)C2)n1 | -13 | 2.67
CCC(C)[C@H](NC(=O)N1CCCC1)C(=O)N1CCN(CC(C)O)C(C)C1 (stereo not given in full) | -8 | 0.87
FC(F)(F)C(c1nc(Nc2nc(N3CCOCC3)nc(N3CCOCC3)n2)nc(C(C(F)(F)F)(C(F)(F)F)C(F)(F)F)n1)(C(F)(F)F)C(F)(F)F | 32 | -4.63
Cc1nc2[nH]nc(N)c2c2c1COC(C)(C)C2 | -16 | 2.01
O=C(c1ccoc1)N1CCCC[C@H]1c1nc(-c2ccncc2)no1 | -14 | 1.48
Cc1ccc2c(c1)Oc1ccccc1C(N1CCN(C(=O)OCc3ccccc3)CC1)=N2 | -6 | 0.82
CCC=C(C)C(=O)NCc1cccc(OCC)c1 | -5 | 0.48
COc1ccccc1CNc1nc2[nH]c3c(c(=O)n2n1)CCCC3 | 8 | -0.7
COc1cc(C(=O)NCC2CCN(CC(F)F)CC2)ncn1 | -5 | 0.84
Cc1cnc([C@H](C)Nc2ncncc2Br)s1 | -5 | 0.62
Cc1ccc(CNC(=O)[C@]2(C)Cn3nc(-c4ccco4)cc3C(=O)N2Cc2ccccc2Cl)cc1 | -15 | 2.39
CCC(O)CNC(C)c1ccc(F)c(Cl)c1 (stereo not given) | -11 | 1.34
CN(Cc1ccccc1)C(=O)c1cc(NC(=O)C2CCC2)ccc1N1CCCN(C(=O)C2CCCC2)CC1 | 3 | -0.4
C[C@@H](C(=O)N1CCC(n2c(=O)[nH]c3ccc(F)cc3c2=O)CC1)n1cccn1 | 4 | -0.68
COc1ccc(OC(C)CNC(=O)N2CCCC(C)(O)C2)cc1 (stereo not given) | 18 | -2.19
Cc1ncsc1C(=O)N1CCC([C@H](C)N2CCN(C)CC2)CC1 | -4 | 0.54
O=C(NCCS(=O)(=O)C1CC1)c1cnc(OCC2CC2)cn1 | 27 | -3.05
Cc1sc(NC(=O)Cc2cccs2)c(C#N)c1-c1ccc(F)cc1 | -12 | 1.39
